{"source": "paper PMC6919601", "about": "“Identification of Plasmodium dipeptidyl aminopeptidase allosteric inhibitors by high throughput screening” (PLoS ONE, 2019)", "note": "The whole screen tested about 110,000 compounds, of which about 230 (0.21%) showed an effect of 50% or more. This is one part of the list.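 Note: 30 min substrate incubation versus DMSO and 10 µM JCP410 controls.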", "data": [{"biological_target": "DPAP1 (Plasmodium falciparum, UniProt Q8IIJ9)", "sequence (Q8IIJ9 whole entry, looked up)": "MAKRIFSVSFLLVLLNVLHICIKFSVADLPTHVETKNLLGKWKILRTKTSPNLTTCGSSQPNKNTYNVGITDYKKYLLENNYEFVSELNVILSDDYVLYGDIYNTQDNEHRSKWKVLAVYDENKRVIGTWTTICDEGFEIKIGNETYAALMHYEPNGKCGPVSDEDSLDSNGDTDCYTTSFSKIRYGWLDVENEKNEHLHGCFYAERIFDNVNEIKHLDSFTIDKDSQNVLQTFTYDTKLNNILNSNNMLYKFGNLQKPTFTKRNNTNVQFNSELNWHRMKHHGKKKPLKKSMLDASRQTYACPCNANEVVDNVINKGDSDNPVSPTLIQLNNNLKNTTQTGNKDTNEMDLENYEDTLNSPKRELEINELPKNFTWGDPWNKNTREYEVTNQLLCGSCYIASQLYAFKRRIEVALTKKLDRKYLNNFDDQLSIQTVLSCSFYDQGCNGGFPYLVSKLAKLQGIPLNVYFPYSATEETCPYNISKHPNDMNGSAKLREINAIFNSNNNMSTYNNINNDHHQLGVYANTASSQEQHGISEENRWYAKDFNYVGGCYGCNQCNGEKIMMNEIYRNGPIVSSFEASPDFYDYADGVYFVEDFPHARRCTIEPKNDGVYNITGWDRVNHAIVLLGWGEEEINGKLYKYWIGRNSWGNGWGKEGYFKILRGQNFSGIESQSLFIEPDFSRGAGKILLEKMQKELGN", "assay": "primary screen, percent inhibition; read by cleavage of a fluorogenic dipeptide substrate; higher = more effect of the substance", "parameters": "species or system P. falciparum D10 trophozoite lysates; single well", "units": {"% Inhibition @ 10 uM": "%"}, "values": [{"smiles": "CCOc1ccccc1CNC(=O)c1cnc(SC)nc1CC", "% Inhibition @ 10 uM": 2.58}, {"smiles": "Cc1ccc(S(=O)(=O)NCCC(=O)NC2CC2)cc1", "% Inhibition @ 10 uM": -2.14}, {"smiles": "O=S1(=O)CCC(Nc2ccccc2)C1", "note": "(stereo not drawn)", "% Inhibition @ 10 uM": -2.59}, {"smiles": "Cc1ccccc1-n1nc2c(c1NC(=O)/C=C\\c1ccc3c(c1)OCO3)CS(=O)(=O)C2", "% Inhibition @ 10 uM": 18.6}, {"smiles": "OCCN(/C=N/C1=NN(c2cccc(C(F)(F)F)c2)CC1)CCO", "% Inhibition @ 10 uM": 2.65}, {"smiles": "CC(C)Oc1ncnc2sc3c(c12)CCCC3", "% Inhibition @ 10 uM": -4.39}, {"smiles": "CC(C)CN1CSC(COc2cccc3ccccc23)C1", "note": "(stereo not drawn)", "% Inhibition @ 10 uM": -3.87}, {"smiles": "COc1ccc(NC(=O)c2sc3nc(-c4ccccc4)ccc3c2N)cc1", "% Inhibition @ 10 uM": -4.11}, {"smiles": "Cc1cc(C)cc(-n2c(C)cc(/C=C3/C(=N)N4C(=NC3=O)SN=C4S(C)(=O)=O)c2C)c1", "% Inhibition @ 10 uM": 1.85}, {"smiles": "CCOc1ccc(C2c3c(oc4ccccc4c3=O)C(=O)N2c2nc(C)c(C)s2)cc1OC", "note": "(stereo not drawn)", "% Inhibition @ 10 uM": -0.828}, {"smiles": "N#C/C(=C(O)\\C=C\\C(=O)O)c1nc2ccccc2[nH]1", "% Inhibition @ 10 uM": -4.85}, {"smiles": "COc1ccc(OC)c(NC(=O)Cc2ccccc2)c1", "% Inhibition @ 10 uM": 2.49}, {"smiles": "COc1ccc(-c2noc(CN(C(=O)CCCN3C(=O)c4ccccc4C3=O)C(C)C)n2)cc1", "% Inhibition @ 10 uM": 1.38}, {"smiles": "Cc1c(NCc2nc3ccccc3[nH]2)c(=O)n(-c2ccccc2)n1C", "% Inhibition @ 10 uM": -1.85}, {"smiles": "COc1ccccc1CNc1nc2c(S(=O)(=O)c3ccccc3)nnn2c2ccccc12", "% Inhibition @ 10 uM": -10.5}, {"smiles": "COc1ccc(-c2ccc3c(N)c(C(=O)NCCc4ccccc4)sc3n2)cc1", "% Inhibition @ 10 uM": -4.02}, {"smiles": "O=C(O)CSCCc1ccccn1", "% Inhibition @ 10 uM": 2.62}, {"smiles": "CCN1CCN(CC(O)COc2cccc(OC)c2)CC1", "note": "(stereo not drawn)", "% Inhibition @ 10 uM": -1.44}, {"smiles": "CCOCCCNc1nc2ccc(C(=O)c3ccccc3)cc2n2cnnc12", "% Inhibition @ 10 uM": -3.24}, {"smiles": "COc1ccc2cc3c(N)nn(C(=O)c4ccccc4F)c3nc2c1", "% Inhibition @ 10 uM": -2.75}, {"smiles": "COc1cccc(C2C(C(=O)Nc3ccccc3OC)=C(C)Nc3nc(CCCO)nn32)c1", "note": "(stereo not drawn)", "% Inhibition @ 10 uM": 0.709}, {"smiles": "COC(=O)c1cc(S(=O)(=O)N2CCn3c2nc2ccccc23)c[nH]1", "% Inhibition @ 10 uM": -4.07}, {"smiles": "CCC1CCCCN1Cc1nc2c(c(=O)n(C)c(=O)n2C)n1Cc1ccccc1Cl", "note": "(stereo not drawn)", "% Inhibition @ 10 uM": 6.08}, {"smiles": "O=C1CCC(=O)N1CCn1c2ccccc2c2nc3ccccc3nc21", "% Inhibition @ 10 uM": -1.74}, {"smiles": "O=C(c1ccccc1)c1ccc(OCCNS(=O)(=O)c2ccc3ccccc3c2)cc1", "% Inhibition @ 10 uM": 0.895}, {"smiles": "CCOc1ccc(C2CC(=O)N3C(=C2C#N)SCC3(O)c2ccc(C)cc2)cc1OC", "note": "(stereo not drawn)", "% Inhibition @ 10 uM": -1.74}, {"smiles": "O=c1c2c3c(sc2nc2n1CCCC2)CCC3", "% Inhibition @ 10 uM": -1.99}, {"smiles": "CCNC(=O)CCc1nc(-c2ccccc2)no1", "% Inhibition @ 10 uM": -3.12}, {"smiles": "CC(C)c1ccc(C(=O)Nc2ccccn2)cc1", "% Inhibition @ 10 uM": 0.389}, {"smiles": "COc1ccc2nc(NC(=O)NCc3noc4ccccc34)sc2c1", "% Inhibition @ 10 uM": 1.95}, {"smiles": "Cc1ccc(CNC(=O)c2ccc(C/N=c3/c(N4CCCC4)c(O)c3=O)cc2)cc1", "% Inhibition @ 10 uM": -0.447}, {"smiles": "COC(=O)C1=CN(C2CC2)C=C(C(=O)OC)C1c1cccs1", "% Inhibition @ 10 uM": 16}, {"smiles": "O=C(CCS(=O)(=O)c1cccs1)NCCc1ccccc1Cl", "% Inhibition @ 10 uM": 0.287}, {"smiles": "Cc1ccc(-c2cc(-c3ccccc3)nc(-n3nc(-c4ccccc4)cc3O)n2)cc1", "% Inhibition @ 10 uM": -2.36}, {"smiles": "COc1ccc(-c2noc(CNC(=O)c3ccccc3-c3ccccc3)n2)cc1", "% Inhibition @ 10 uM": -1.22}, {"smiles": "O=C(O)CNC(=O)c1cccnc1", "% Inhibition @ 10 uM": 1.91}, {"smiles": "O=CN1CCN(C(C(=O)NC2CCCCC2)c2ccc(Cl)cc2)CC1", "note": "(stereo not drawn)", "% Inhibition @ 10 uM": -2.9}, {"smiles": "Cc1ccc2[nH]c(-c3cccs3)nc2c1", "% Inhibition @ 10 uM": -0.551}, {"smiles": "Cc1cccc(C)c1N1C(=O)CC(N2CCN(Cc3ccccc3)CC2)C1=O", "note": "(stereo not drawn)", "% Inhibition @ 10 uM": -1.82}, {"smiles": "CCN(CC)S(=O)(=O)c1ccc(Cl)c([N+](=O)[O-])c1", "% Inhibition @ 10 uM": -1.97}, {"smiles": "Cc1ccnc(NC(=O)Cc2ccc(F)cc2)c1", "% Inhibition @ 10 uM": 0.843}, {"smiles": "COc1cccc(C2C(C(=O)c3ccc4c(c3)OCCO4)=C(O)C(=O)N2CCN(C)C)c1OC", "note": "(stereo not drawn)", "% Inhibition @ 10 uM": -0.48}, {"smiles": "COCc1cc(C)nc(SCC(=O)Nc2nc(-c3ccccc3)cs2)c1C#N", "% Inhibition @ 10 uM": -1.38}, {"smiles": "CN1CCCN(Cc2c(F)cccc2F)CC1", "% Inhibition @ 10 uM": -2.03}, {"smiles": "Cn1c(=O)c2c(nc(CN3CCc4ccccc4C3)n2CCCO)n(C)c1=O", "% Inhibition @ 10 uM": 0.317}, {"smiles": "Cc1ccc(S(=O)(=O)N(CC(=O)NCc2ccncc2)c2cc(Cl)ccc2C)cc1", "% Inhibition @ 10 uM": 1.67}, {"smiles": "CCOc1ncccc1-c1nc(-c2ccc(-n3cccc3)cc2)no1", "% Inhibition @ 10 uM": 3.47}, {"smiles": "Nc1c(C(=O)Nc2ccc(Br)cc2F)sc2nc(-c3ccncc3)ccc12", "% Inhibition @ 10 uM": -4.15}, {"smiles": "O=c1/c(=C/c2ccc(OCc3ccccc3)cc2)sc2ncnn12", "% Inhibition @ 10 uM": 0.487}, {"smiles": "Cc1cc(C(=O)O)cc(S(=O)(=O)Nc2ccc(Br)cc2)c1C", "% Inhibition @ 10 uM": -3.69}, {"smiles": "O=C(NCCCNC(=O)C1c2ccccc2Oc2ccccc21)C1c2ccccc2Oc2ccccc21", "% Inhibition @ 10 uM": -2.89}]}]}
